# Laboratory results reported in the RNAGym collection of RNA variant scans (doi:10.1093/nar/gkz1192).
# Read counts are not given, so values of variants with three or more changes are uncertain.
# B1: CPEB3 Ribozyme (parent)
# chain: UAACAGGGGGCCACAGCAGAAGCGUUCACGUCGCAGCCCCUGUCAGAUUCUGGUGAAUCUGCGAAUUCUGCUGUAUAUCUC
# Variants of: B1
# Assay: self-cleavage, relative activity (ratio to wild type); higher = more cleavage; in vitro, sequencing
# Summary of the method: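 CPEB3 self-cleaving ribozyme mutant libraries were made by rounds of error-prone PCR, barcoded, and transcribed in vitro with T7 RNA polymerase for 5 hours at 37°C. Cleavage occurred during transcription and a 15 min DNase I step before EDTA stop. RNAs were reverse transcribed with template switching and Illumina-sequenced, with DNA sequencing mapping barcodes to variants. Relative activity is the variant's cleaved/total read fraction divided by wild type's (minimum 5 reads), averaged across three batches.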
row,Variant,self-cleavage
1,UAACAGGGGGCCACAGCAGGAGCGUUCACGUCGCAGCCCCUGUCAGAUUCUGGUGAAUCCGCGAGUUCUGCUGUAUAUCUC,0.06
2,UAACAGGGGGCCACAGCAGGAGCGUUCACGUCGCAGCCCCCGUCAGAUUAUAGUGAAUCUGCGAAUUCUGCUGUAUAUCCC,0.86
3,UAACAGGGGGCCACAGCAGGAGCGUUCACGUCGCAGCCCCCGUCAGGUUCUGGUGAAUCUGCGAAUUCUGCUGUACAUCUC,0.79
4,UAACAGGGGGCCACAGCAGGAGCGUUCACGUCGCAGCCCCUGUCAGACUCUGGUGAGUCUGCGAAUUCUGCUGUAUAUCUC,0.93
5,UAACAGGGGGCCACAGCAGGAGCGUUCACGUCGCAGCCCCUGUCAGACUCUGGUGAAUCGGCGAAUUCUGCGGUAUAUCCC,0.3
6,UAACAGGGGGCCACAGCAGGAGCGUUCACGUCGCAGCCCCUGUCAGAAUCUGUUGAAUCUGCGAAUUCUGCUGUAUAUCUC,0.36
7,UAACAGGGGGCCACAGCAGGAGCGUUCACGUCGCAGCCCCUGUCAGACUCUGGUGAAUCUGCGAAUUCAGCUGUAUACCUC,0.1
8,UAACAGGGGGCCACAGCAGGAGCGUUCACGUCGCAGCCCCUGUCAGAUUCUGGCGAAUCUGCGAAUUCUGCUGUAUAACUC,0.49
9,UAACAGGGGGCCACAGCAGGAGCGUUCACGUCGCAGCCCCCGUCAGAUUCUGGUGAAUCUGCGAAUUCUGCUGUGUAUCUC,0.9
10,UAACAGGGGGCCACAGCAGGAGCGUUCACGUCGCAGCCCCCGUCAGAUUCUGGUGAAUCUGCGAAUUCUACCGUAUAUCUC,0.23
11,UAACAGGGGGCCACAGCAGGAGCGUUCACGUCGCAGCCCCAGUCAGAUUCCGGUGAAUCUGCGAAUUCUGCUGUAUAUCUC,0.25
12,UAACAGGGGGCCACAGCAGGAGCGUUCACGUCGCAGCCCCUGUCAGAUUCUGGAGAAUCUGCGAAUCCUGCUGUAUACCUC,1.08
13,UAACAGGGGGCCACAGCAGGAGCGUUCACGUCGCAGCCCCAGUCAGAUUCCGGUGAGUCUGCGAAUUCUGCUGUAUAUCUC,0.42
14,UAACAGGGGGCCACAGCAGGAGCGUUCACGUCGCAGCCCCAGUCAGAUCCUGGUGAAUCUGCGAAUUCGGCUGUAUAUCUC,0.16
15,UAACAGGGGGCCACAGCAGGAGCGUUCACGUCGCAGCCCCUGUCAGAUUCAGGUGAAUCUGUGUAUUCUGCUGUAUACCUC,0.14
16,UAACAGGGGGCCACAGCAGGAGCGUUCACGUCGCAGCCCCUGUCAGAUUCUGGUGAAUCCGCGGAUUCUGCUGUAUAUCUC,0.25
17,UAACAGGGGGCCACAGCAGGAGCGUUCACGUCGCAGCCCCUGUCAGACUCUGGUGAAUCUGCGAAUUCUGCUGUAUACCUC,0.43

row,Variant,self-cleavage
1,UAACAGGGGGCCACAGCAGGAGCGUUCACGUCGCAGCCCCUGACAGAUUCUGGUGAAUCUGCGAAUUCUGCUGUAUAUGUC,1.22
2,UAACAGGGGGCCACAGCAGGAGCGUUCACGUCGCAGCCCCCGUCAGAUUCUGGUGAAUCAGCGAAUUCCGCUGCUUAUCCC,0.41
3,UAACAGGGGGCCACAGCAGGAGCGUUCACGUCGCAGCCCCUGUCAGAUUCCGGCGAAUCUGCGAAUUCUGCAGUAUAUCAC,0.38
4,UAACAGGGGGCCACAGCAGGAGCGUUCACGUCGCAGCCCCUGACGGACUCUGGUGAAUCUGCGAAUACUGCUGUAUAUCUC,0.14
5,UAACAGGGGGCCACAGCAGGAGCGUUCACGUCGCAGCCCCUGUCAGAUCCUGGUGAGUCUGCAAAUUCUGCUGUAUAUCUC,0.16
6,UAACAGGGGGCCACAGCAGGAGCGUUCACGUCGCAGCCCCAGUCAGAUUAUGGUGAAUCUGCGAAUUCUGCUGUAUAUCUC,0.34
7,UAACAGGGGGCCACAGCAGGAGCGUUCACGUCGCAGCCCCUGUCAGAUUCUGGGGAGUCUGCGAAUUCUGCUGUAUAUCUC,0.2
8,UAACAGGGGGCCACAGCAGGAGCGUUCACGUCGCAGCCCCUGCCAGAUUCUGGUGAAUCUGCGAAUUCUGCUGAAUAUCUC,0.28
9,UAACAGGGGGCCACAGCAGGAGCGUUCACGUCGCAGCCCCCGUCAGAUUCUGGUGAAUCUGCGUAUUCUGCUGUAUAUCUC,0.38
10,UAACAGGGGGCCACAGCAGGAGCGUUCACGUCGCAGCCCCCGUCAGAUGCUGGUGAAUCUGCGAAUUCUGCUGCAUAUCUC,0.62
11,UAACAGGGGGCCACAGCAGGAGCGUUCACGUCGCAGCCCCUGUCAGAUUCUGGUGAAUCAGCGGAUUCUGCCGUAUAUCUC,0.15
12,UAACAGGGGGCCACAGCAGGAGCGUUCACGUCGCAGCCCCAGUCAGAUUCUGGUGAAUCUGCGAAUUCUGCUGUGUAUCUC,0.43
13,UAACAGGGGGCCACAGCAGGAGCGUUCACGUCGCAGCCCCUGUCAGAUUCUGGUGAACCCGCGAAUUCUGUUGUAUAUCUC,0.1
14,UAACAGGGGGCCACAGCAGGAGCGUUCACGUCGCAGCCCCUGUCAGAUUCUGGUGAAUCAGCGAAUUCUGCCGUAUAUCUC,0.55
15,UAACAGGGGGCCACAGCAGGAGCGUUCACGUCGCAGCCCCUGUCAGACUCUGGUGAAUCCGCGAAUUCUGCCGUAUAUCUC,0.09
16,UAACAGGGGGCCACAGCAGGAGCGUUCACGUCGCAGCCCCUGUCAGAUUCUGGUGAAUCCGCGAAUUCUGCUGUGUAUCUC,0.45
17,UAACAGGGGGCCACAGCAGGAGCGUUCACGUCGCAGCCCCAGUCUGAUUCUGGUGAAUCUGUGAAUUCUGCUGUAUAUCUC,0.11
